The series concerns the molecule itself. Nature of the series: SEC. A general note: In gel filtration, larger molecules generally elute earlier.

B1: full-length human GST-His6-tagged CRN2 S463D purified from insect cells (natural protein)
chain: not shown
Consider B1, for which the “stoichiometry N” value was determined as 3.

B2: GFP-tagged full-length CRN2 S463D (natural protein)
chain: not shown
In the case of B2, the “stoichiometry N” value was determined as 3.

B3: GFP-tagged full-length CRN2 S463A (natural protein)
chain: not shown
On to B3, for which the “stoichiometry N” value was 3.

The term stoichiometry N denotes the number of molecules, sites or subunits per partner or assembly.

The values above are taken from paper PMC3268813 (Scientific Reports, 2012).
